The campaign covered roughly 220,000 compounds. About 830 (0.38%) were called active. Inconclusive means that the source gave no clear call. Such entries were picked first, then a sample of the others.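 The calls were made as follows: active = compound inhibiting the enzyme by more than half at any dose during confirmatory dose-response retesting; inconclusive = strong single-dose inhibitors picked by rank but not retested; inactive = the rest.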
Molecular target: Leucine aminopeptidase (Plasmodium falciparum (isolate 3D7)) (UniProt Q8IL11)
Sequence of UniProt Q8IL11 (Q8IL11 whole entry, looked up): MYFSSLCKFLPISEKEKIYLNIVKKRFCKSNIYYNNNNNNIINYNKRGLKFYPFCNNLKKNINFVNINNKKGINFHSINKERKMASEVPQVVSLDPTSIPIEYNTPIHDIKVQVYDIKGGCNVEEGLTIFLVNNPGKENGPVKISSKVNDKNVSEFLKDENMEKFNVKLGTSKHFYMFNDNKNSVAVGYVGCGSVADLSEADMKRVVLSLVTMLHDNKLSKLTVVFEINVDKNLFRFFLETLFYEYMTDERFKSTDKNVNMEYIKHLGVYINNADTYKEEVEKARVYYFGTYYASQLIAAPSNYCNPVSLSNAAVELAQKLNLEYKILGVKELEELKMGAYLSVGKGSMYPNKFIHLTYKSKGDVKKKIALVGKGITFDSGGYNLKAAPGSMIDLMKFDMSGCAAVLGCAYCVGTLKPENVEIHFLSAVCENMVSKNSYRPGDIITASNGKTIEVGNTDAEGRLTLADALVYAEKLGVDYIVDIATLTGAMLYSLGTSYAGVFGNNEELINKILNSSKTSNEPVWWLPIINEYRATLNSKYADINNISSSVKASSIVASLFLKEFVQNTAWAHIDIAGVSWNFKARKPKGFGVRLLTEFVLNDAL
Experiment: P. falciparum M17LAP inhibitors, primary screen, biochemical, fluorogenic H-Leu-NHMec substrate, 1536-well (AID 1619);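 also: plate controls were full reaction with DMSO carrier for no effect and no enzyme background for full effect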
Conditions: recombinant M17LAP, H-Leu-NHMec fluorogenic kinetic assay; at 30 µM; hits give high values

Compound	inhibition
CCOC(=O)c1c(N)c2cc([N+](=O)[O-])cnc2n1C	inactive: -0.26%
O=C(O)/C(=C\c1ccc(-c2ccc(F)cc2)o1)c1ccccc1	inconclusive: 61.2%
Clc1cc(Cl)cc(Nc2ncnc(-n3cccc3)n2)c1	inactive: 12.9%
CC1=NNC(=O)C1CC(=O)N/N=C(/C)c1cccc([N+](=O)[O-])c1 (stereo not drawn)	inconclusive: 75.9%
N#C/C(=C\c1ccc(OCc2ccc(C(=O)O)cc2)cc1)C(=O)N1CCOCC1	inconclusive: 58.6%
COc1ccc(-c2cc(C(F)(F)F)c3c(n2)sc2c(O)cc(=O)[nH]c23)c(OC)c1	inconclusive: 86.5%
CCOC(=O)c1oc2ccccc2c1NC(=O)c1ccc(S(=O)(=O)N2CCCC2)cc1	inactive: -6.8%
CC1CCc2nc3ccc(S(=O)(=O)N4CCC(C(=O)NC5CCCC5)CC4)cc3c(C(=O)O)c2C1 (stereo not drawn)	inconclusive: 84.1%
O=S(=O)(Cc1cc(Cl)nc(-c2ccncc2)n1)c1ccccc1	inconclusive: 64.4%
CCN1C(=O)S/C(=C/c2c(OCc3ccc(C(=O)O)cc3)ccc3ccccc23)C1=O	inconclusive: 58.6%
CC(C)c1ccc(/C=N/Nc2ccc(C(=O)O)cc2)cc1	inconclusive: 85.7%
O=C1C(=Cc2ccc(Br)o2)C(=O)c2ccccc21	inconclusive: 59.2%
Cc1ccc(C2C3=C(Nc4[nH]n(-c5ccccc5)c(=O)c42)c2ccccc2C3=O)cc1 (stereo not drawn)	inconclusive: 73.2%
Cc1nc2ccc(NC(=O)c3cc([N+](=O)[O-])cc([N+](=O)[O-])c3Cl)cc2s1	inconclusive: 60%
[O-]/C(=C(\C(=S)Nc1ccccc1F)[n+]1ccccc1)c1ccc(-c2ccccc2)cc1	inactive: -0.96%
O=C(O)COc1ccccc1C(Nc1ccccn1)c1cc(Cl)c2cccnc2c1O (stereo not drawn)	inconclusive: 90%
COc1ccc(CNc2ncccn2)cc1OC	inactive: -2.62%
CCC(C(=O)O)N1C(=O)/C(=C/c2cccn2C)SC1=S (stereo not drawn)	inconclusive: 108%
CC(C)c1ccc(Nc2nnc(SCC(=O)c3nnc(-c4ccccc4)o3)s2)cc1	inconclusive: 67%
O=C(O)COc1ccc(/C=N/n2cnc3scc(-c4cccs4)c3c2=O)cc1	inconclusive: 65.9%
CCCc1cc(=O)n2[nH]c(NCc3ccc(Cl)cc3Cl)nc2n1	inconclusive: 79.1%
Cc1cc(O)c(C=O)c2c1C(=O)Oc1c(CO)c(O)c3c(c1O2)C(O)OC3=O (stereo not drawn)	inconclusive: 59.6%
COc1cccc2c1C(=O)c1c(O)c3c(c(O)c1C2=O)C[C@@](O)(C(C)=O)C[C@@H]3O[C@H]1C[C@H](N)[C@H](O)[C@H](C)O1	inconclusive: 66.5%

Reference: PubChem BioAssay AID1619 (SRMLSC, 2009)
